# This is one part of the list.
# System: HepG2
# Test: cytotoxicity call (relative viability < 0.9)
# Conditions: 10 µM
row,SMILES,cytotoxicity call
1,C=CCOC(=O)[C@H]1[C@@H]2C(=O)O[C@@H](c3ccccc3)[C@@H](c3ccccc3)N2[C@@H](c2ccc(OCCOC(=O)[C@@H]3C[C@@H]4C(=O)N[C@@H](CCCCNC(C)=O)C(=O)N4[C@@H]3c3ccc(O)cc3)cc2)[C@]12C(=O)Nc1ccccc12,inactive
2,COc1ccc([C@H]([C@H](Cc2ccccc2)OC(C)=O)N(C[C@@H](/C=C/c2ccccc2)CC(=O)N(C)C)[C@@H](Cc2ccccc2)C(OC)OC)cc1,active
3,C[C@H]1CN([C@@H](C)CO)C(=O)c2cc(NC(=O)Nc3ccc4c(c3)OCO4)ccc2O[C@H]1CN(C)Cc1ccc(Cl)c(Cl)c1,inactive
4,NC(=O)CCCCC1CCSS1 (stereo not given),inactive
5,O=C(CN1CCOCC1)NCC[C@H]1CC[C@H](NC(=O)c2ccc3c(c2)OCO3)[C@@H](CO)O1,inactive
6,C[C@@H]1CN([C@@H](C)CO)C(=O)c2cc(NC(=O)C3CCCCC3)ccc2O[C@@H](C)CCCCO[C@H]1CN(C)Cc1ccc(Cl)c(Cl)c1,active
7,C[C@@H]1CCCCO[C@@H](CN(C)C(=O)Nc2cccc3ccccc23)[C@H](C)CN([C@@H](C)CO)C(=O)c2cc(NS(=O)(=O)c3ccc(F)cc3)ccc2O1,inactive
8,C[C@H](CO)N1C[C@H](C)[C@@H](CN(C)C(=O)c2ccncc2)Oc2cc(-c3cccc(C#N)c3)ccc2S1(=O)=O,inactive
9,O=C(c1ccc(-n2cnnn2)cc1)N1CCN([C@H]2CCS(=O)(=O)C2)CC1,inactive
10,C[C@@H]1CN([C@@H](C)CO)S(=O)(=O)c2ccc(C#CC3CCCCC3)cc2O[C@H]1CN(C)C(=O)Cc1ccncc1,inactive
11,COc1ccc(NC(=O)Nc2ccc3c(c2)C(=O)N([C@@H](C)CO)C[C@@H](C)[C@H](CN(C)C(=O)Nc2ccc(F)cc2)OCCCC[C@@H](C)O3)cc1,inactive
12,C[C@@H]1CN([C@@H](C)CO)C(=O)c2cc(NC(=O)NC3CCCCC3)ccc2O[C@@H](C)CCCCO[C@H]1CN(C)C(=O)Cc1ccccc1,inactive
13,Cc1noc(C)c1S(=O)(=O)N(C)C[C@H]1OCCCC[C@H](C)Oc2ccc(NS(C)(=O)=O)cc2C(=O)N([C@H](C)CO)C[C@H]1C,inactive
14,COCC#Cc1ccc2c(c1)O[C@H](CN(C)Cc1ccc3c(c1)OCO3)[C@H](C)CN([C@@H](C)CO)S2(=O)=O,inactive
15,C[C@@H]1CN([C@@H](C)CO)C(=O)c2cc(NC(=O)Nc3cccc4ccccc34)ccc2O[C@H]1CN(C)Cc1ccc(-c2ccccc2)cc1,inactive
16,C[C@H](CO)N1C[C@H](C)[C@@H](CN(C)C(=O)NC2CCCCC2)Oc2ccc(NC(=O)C3CC3)cc2C1=O,inactive
17,CCCSc1ccc2nc(NC(=O)OC)[nH]c2c1,active
18,C[C@@H]1CN([C@H](C)CO)C(=O)c2cc(NC(=O)CCC(F)(F)F)ccc2O[C@@H]1CN(C)Cc1ccc(Oc2ccccc2)cc1,inactive
19,COc1ccc(-c2cnc3c(c2)C(=O)N([C@H](C)CO)C[C@@H](C)[C@H](CN(C)C(=O)Cc2ccccn2)O3)cc1,inactive
20,COc1ccccc1-c1cnc2c(c1)C(=O)N([C@@H](C)CO)C[C@@H](C)[C@@H](CN(C)C(=O)c1cccnc1)O2,inactive

row,SMILES,cytotoxicity call
1,C[C@H](CO)N1C[C@H](C)[C@@H](CN(C)C(=O)c2ccccc2)Oc2cc(C#C[C@@H](C)O)ccc2S1(=O)=O,inactive
2,Cn1cnc(S(=O)(=O)N[C@@H]2C=C[C@H](CC(=O)N3CCN(c4ccccc4)CC3)O[C@@H]2CO)c1,inactive
3,C[C@H](N)C(=O)N[C@@H](C)P(=O)(O)O,inactive
4,COc1cccc(S(=O)(=O)N[C@@H]2C=C[C@@H](CC(=O)NC3CCC3)O[C@@H]2CO)c1,inactive
5,C[C@@H]1CN([C@H](C)CO)C(=O)c2cc(C#Cc3cccc(F)c3)cnc2O[C@H]1CN(C)Cc1ccccn1,inactive
6,Cc1ccc(S(=O)(=O)N(C)C[C@@H]2Oc3ccc(NC(=O)CCCN(C)C)cc3C(=O)N([C@@H](C)CO)C[C@@H]2C)cc1,inactive
7,C[C@H]1CN([C@@H](C)CO)C(=O)c2cc(C#CCN(C)C)cnc2O[C@@H]1CN(C)S(=O)(=O)c1ccccc1,inactive
8,COc1cccc(S(=O)(=O)Nc2ccc3c(c2)C(=O)N(C)C[C@@H](OC)[C@@H](C)CN(C(=O)Cc2cccnc2)[C@H](C)CO3)c1,inactive
9,COc1ccc(S(=O)(=O)N2C[C@H](O)COC[C@H]3O[C@H](CC(=O)NCCCN4CCOCC4)CC[C@@H]32)cc1,inactive
10,C[C@@H]1CN([C@@H](C)CO)C(=O)c2cc(C#Cc3ccc(F)cc3)cnc2O[C@@H]1CN(C)Cc1ccccn1,inactive
11,C[C@@H]1CN([C@H](C)CO)C(=O)c2cc(NC(=O)Nc3cccc4ccccc34)ccc2O[C@H]1CN(C)S(=O)(=O)c1ccc(Cl)cc1,inactive
12,COc1ccc(NC(=O)Nc2ccc3c(c2)C(=O)N([C@H](C)CO)C[C@@H](C)[C@H](CN(C)S(=O)(=O)c2ccc(Cl)cc2)OCCCC[C@H](C)O3)cc1,inactive
13,C[C@@H]1CN([C@H](C)CO)C(=O)c2cc(NC(=O)Nc3ccc4c(c3)OCO4)ccc2O[C@H]1CN(C)C(=O)Nc1cccc2ccccc12,inactive
14,COc1ccc(CN(C)C[C@H]2OCCCC[C@@H](C)Oc3ccc(NC(=O)Nc4cccc5ccccc45)cc3C(=O)N([C@@H](C)CO)C[C@@H]2C)cc1,inactive
15,COc1cccc(S(=O)(=O)N(C)C[C@@H]2Oc3cc(C#CCN(C)C)ccc3S(=O)(=O)N([C@H](C)CO)C[C@@H]2C)c1,inactive
16,N#Cc1c(N)nc(SCc2csc(-c3ccc(Cl)cc3)n2)c(C#N)c1-c1ccc(OCCO)cc1,inactive
17,CC(C)COc1c[nH]c(CO)cc1=O,inactive
18,C[C@H](CO)N1C[C@H](C)[C@H](CN(C)S(C)(=O)=O)Oc2c(NC(=O)CCCCCC(=O)Nc3ccccc3N)cccc2C1=O,inactive
19,C[C@H](CO)N1C[C@H](C)[C@@H](CN(C)S(=O)(=O)c2ccc(F)cc2)Oc2ccc(NS(C)(=O)=O)cc2CC1=O,inactive
20,C[C@H](CO)N1C[C@H](C)[C@H](CN(C)C(=O)Nc2ccc3c(c2)OCO3)Oc2ccc(NC(=O)Cn3cnnn3)cc2CC1=O,inactive
